# Experimental data reported in the supplement of paper PMC12217912.
# The list shows a part of the results. Sequences were assembled here from the parent chain. Values near 0.05 are background.
# B1: TEV protease; numbered along this chain (parent)
# chain: MGESLFKGPRDYNPISSSICHLTNESDGHTTSLYGIGFGPFIITNKHLFRRNNGTLVVQSLHGVFKVKDTTTLQQHLVDGRDMIIIRMPKDFPPFPQKLKFREPQREERICLVTTNFQTKSMSSMVSDTSCTFPSGDGIFWKHWIQTKDGQCGSPLVSTRDGFIVGIHSASNFTNTNNYFTSVPKNFMELLTNQEAQQWVSGWRLNADSVLWGGHKVFMVKPEEPFQPVKEATQL
# Variants of: B1
# Test: raw area under fraction-flipped curve 0-4 h after induction (AUC4h, not background-subtracted), DNA-recorder readout of cleavage of the substrate (dimensionless); higher = more cleavage of the substrate by the protease variant
# Settings: temperature: 34 °C; time window: 0-4 h after rhamnose induction
# Experimental: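 In vivo DNA recorder in E. coli TOP10(DE3) ΔrhaA at 34 °C. Each TEVp single-site mutant (parent TEVp 0) is paired with a single-site variant of the 7-mer TEVs (canonical ENLYFQ|S). The substrate sits between flexible linkers in a Bxb1-sfGFP-TEVs-SsrA fusion, so cleavage stabilises Bxb1 and speeds flipping of a recombination array, read by NGS. The value is the raw area under the fraction-flipped curve over 0-4 h after rhamnose induction (AUC4h), with ≥20 reads per time point. It is not background-subtracted; inactive controls average about 0.047.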
# 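Note: Bxb1 expression induced with 0.2% (w/v) L-rhamnose at OD600 near 0.5, cultures sampled hourly, flipped fraction per protease–substrate barcode pair counted by paired-end Illumina sequencing.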
Variant,area with substrate ENLYFAS,area with substrate ENLYFDS,area with substrate ENLYFES,area with substrate ENLYFFS,area with substrate ENLYFHS,area with substrate ENLYFIS,area with substrate ENLYFLS,area with substrate ENLYFMS,area with substrate ENLYFNS,area with substrate ENLYFPS,area with substrate ENLYFRS,area with substrate ENLYFSS,area with substrate ENLYFTS,area with substrate ENLYFVS,area with substrate ENLYFWS,area with substrate ENLYFYS,area with substrate ENLYFCS,area with substrate ENLYFKS,area with substrate ENLYFGS
T55Y,0.0627,0.0522,0.0497,0.0572,0.0598,0.0544,0.0591,0.0543,0.0624,0.0594,0.066,0.0564,0.0562,0.0609,0.0382,0.0479,–,–,–
V58K,0.0519,–,–,0.0565,0.0379,0.0492,0.0403,0.03,–,–,0.0542,0.042,–,–,–,0.0531,0.0518,–,–
Q59Y,0.0393,–,0.0535,0.0391,–,0.0513,–,–,0.0671,0.0504,0.0577,0.0591,0.0564,–,0.05,–,0.0523,–,–
S60D,0.0789,–,0.0376,–,0.0646,0.0257,0.0527,0.0714,–,0.0396,0.047,0.0499,0.052,0.0497,0.0196,0.0443,0.0508,0.0501,–
S60E,0.0459,0.0465,0.0477,0.0471,0.0448,0.0419,0.0549,0.0474,0.0462,0.0461,0.0512,0.0564,0.0538,0.0448,0.048,0.0288,0.0384,0.0424,0.0504
S60Y,0.0596,–,0.0674,0.0703,0.0613,0.0549,0.0537,0.0598,0.0657,–,0.0485,0.051,–,0.0473,–,–,0.0516,–,–
L61D,0.0582,–,0.0658,0.0717,0.0619,0.0552,0.0574,0.0682,0.0608,0.0687,0.0649,0.0575,0.0527,–,0.0537,–,0.0691,0.0737,0.0642
L61K,0.0537,–,0.0672,–,–,0.0518,–,0.075,–,–,0.0563,–,–,–,–,0.0538,–,–,0.0546
H62M,0.0516,0.0529,–,0.077,0.0647,0.0485,–,–,0.0625,0.073,–,–,0.0372,0.0553,0.0608,–,–,–,0.0602
G63D,0.0729,0.0874,0.0584,0.0762,0.0643,0.0584,–,0.0527,–,–,0.03,0.0459,0.0527,0.0442,0.0595,–,0.0522,0.053,0.0413
F65T,0.0807,–,0.0674,0.0781,–,0.0594,0.0515,0.0666,0.0628,0.0661,0.0606,0.0671,0.0573,–,–,–,0.0351,0.0767,0.0664
K68L,0.0453,0.0552,0.0613,0.078,0.0533,0.0577,–,0.0601,0.0579,0.0453,–,0.0495,0.0645,0.0663,0.0464,0.0482,0.0536,0.0749,–
K68Q,0.0422,0.075,0.0872,–,0.0454,0.0566,–,0.0599,–,0.0579,–,–,0.0705,–,0.0505,–,0.0608,–,–
D69R,0.0575,0.0572,0.0628,0.0704,–,0.0585,0.0325,0.0623,0.0632,0.0737,0.0539,–,0.0683,0.0532,–,0.0528,0.0271,0.0552,0.0583
T70A,0.0918,–,0.0608,0.0584,–,0.0528,0.0701,0.0665,0.0532,0.0547,0.0759,–,0.0597,0.0419,0.0649,0.0607,0.0237,0.052,0.0518
T70D,0.0496,–,0.0637,0.0392,0.0573,0.0432,–,0.0497,0.0667,0.0584,–,0.0702,0.0509,0.0377,0.0573,–,0.0496,–,0.0141
T70W,0.0587,–,0.0605,–,0.067,0.0613,0.063,0.0647,0.059,0.0614,–,0.0565,0.0637,0.058,0.0604,0.0583,0.057,0.0775,0.063
Q74E,0.0536,–,0.0676,0.066,–,0.0491,–,–,0.0636,0.0682,–,–,0.0796,0.0578,–,–,0.0479,0.0545,–
Q74W,0.0573,–,0.0725,0.071,–,0.0586,–,–,0.0539,0.0507,0.0603,0.065,0.0661,0.0539,–,0.071,0.0582,–,–
H76A,0.0588,0.0664,0.0607,0.0719,–,0.0652,–,0.0821,0.0615,0.0579,0.0496,–,0.0605,0.059,–,0.0649,0.0577,–,–
H76I,0.0741,–,–,0.0818,0.0517,0.0558,–,0.0513,–,0.0668,0.0204,0.0225,–,–,–,0.0542,0.059,0.0583,–
H76Q,0.0507,–,0.0698,–,–,0.064,–,0.0783,–,0.0708,–,0.0507,0.0669,–,0.0606,–,0.0511,–,–
L77D,0.0772,0.0437,0.051,0.0436,0.0594,0.0636,0.0598,0.0578,0.0567,0.0163,0.0587,0.0397,0.0608,0.059,0.0523,0.0688,0.0599,0.0888,–
L77V,0.0665,–,–,0.0839,–,0.059,–,0.0545,–,0.05,–,–,0.056,0.0506,–,0.045,0.067,0.0567,0.0684
R81D,0.0441,0.0583,0.0531,0.0668,0.054,0.0585,–,0.064,0.0647,0.0444,–,0.0456,–,–,0.0481,–,0.0495,0.094,–
D82F,0.0586,–,0.0502,0.0593,–,0.0491,0.048,0.0523,0.0481,0.0586,0.044,0.0615,0.069,0.059,0.0485,0.0505,0.0581,0.0522,0.051
